Substitutions are numbered along the chain they refer to. Results are given in words; binding and its absence hold for the method and conditions named. In cells and extracts the contact can be indirect. Some results given as binding are weak or reduced against the parent protein; the word gives no strength. For part of these data: Where a sequence is shown, tags or fusion partners need not be part of it. Blank lines part the entries; values can stand above or below the binder they belong to.
Legend:
Test in all cases: co-IP; HA-tagged Rab overexpressed in HEK293A cells; lysate at 1.0 mg/ml in lysis buffer with 1% Triton X-100; HA-agarose, 4 °C, 2 h, three washes; GDI1 and GDI2 detected by immunoblotting
HA-Rab29 D63A (human) = biological target: T1, HA-Rab29 D63A (human) (UniProt O14966)
T1 sequence: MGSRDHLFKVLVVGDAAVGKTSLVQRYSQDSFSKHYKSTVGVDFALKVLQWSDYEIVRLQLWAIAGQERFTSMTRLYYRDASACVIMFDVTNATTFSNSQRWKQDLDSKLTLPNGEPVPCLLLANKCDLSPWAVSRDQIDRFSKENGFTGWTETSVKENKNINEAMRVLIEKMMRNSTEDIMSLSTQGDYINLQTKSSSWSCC

The chains behind the UniProt entries cited, without tags or fusion partners.
UniProt P61026: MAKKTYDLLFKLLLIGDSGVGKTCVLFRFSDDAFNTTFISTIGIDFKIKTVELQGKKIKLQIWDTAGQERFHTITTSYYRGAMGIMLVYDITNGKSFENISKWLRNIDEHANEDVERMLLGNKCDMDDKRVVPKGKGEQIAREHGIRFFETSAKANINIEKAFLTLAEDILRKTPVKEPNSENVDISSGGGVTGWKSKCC

HA-Rab29 (WT) (human) = biological target: T2, HA-Rab29 (WT) (human) (UniProt O14966)
T2 sequence: T1 sequence with A63D

HA-Rab10 (WT) (human) = HA-Rab10 (WT) (human) (UniProt P61026)

binding (HA-Rab29 D63A (human)): no binding
binding (HA-Rab29 (WT) (human)): no binding
binding (HA-Rab10 (WT) (human)): binds
B1: GDI2 (protein, UniProt P50395 1-445)
chain: MNEEYDVIVLGTGLTECILSGIMSVNGKKVLHMDRNPYYGGESASITPLEDLYKRFKIPGSPPESMGRGRDWNVDLIPKFLMANGQLVKMLLYTEVTRYLDFKVTEGSFVYKGGKIYKVPSTEAEALASSLMGLFEKRRFRKFLVYVANFDEKDPRTFEGIDPKKTTMRDVYKKFDLGQDVIDFTGHALALYRTDDYLDQPCYETINRIKLYSESLARYGKSPYLYPLYGLGELPQGFARLSAIYGGTYMLNKPIEEIIVQNGKVIGVKSEGEIARCKQLICDPSYVKDRVEKVGQVIRVICILSHPIKNTNDANSCQIIIPQNQVNRKSDIYVCMISFAHNVAAQGKYIAIVSTTVETKEPEKEIRPALELLEPIEQKFVSISDLLVPKDLGTESQIFISRTYDATTHFETTCDDIKNIYKRMTGSEFDFEEMKRKKNDIYGED

binding (HA-Rab29 D63A (human)): no binding
binding (HA-Rab29 (WT) (human)): no binding
binding (HA-Rab10 (WT) (human)): binds
B2: GDI1 (protein, UniProt P31150 1-447)
chain: MDEEYDVIVLGTGLTECILSGIMSVNGKKVLHMDRNPYYGGESSSITPLEELYKRFQLLEGPPESMGRGRDWNVDLIPKFLMANGQLVKMLLYTEVTRYLDFKVVEGSFVYKGGKIYKVPSTETEALASNLMGMFEKRRFRKFLVFVANFDENDPKTFEGVDPQTTSMRDVYRKFDLGQDVIDFTGHALALYRTDDYLDQPCLETVNRIKLYSESLARYGKSPYLYPLYGLGELPQGFARLSAIYGGTYMLNKPVDDIIMENGKVVGVKSEGEVARCKQLICDPSYIPDRVRKAGQVIRIICILSHPIKNTNDANSCQIIIPQNQVNRKSDIYVCMISYAHNVAAQGKYIAIASTTVETTDPEKEVEPALELLEPIDQKFVAISDLYEPIDDGCESQVFCSCSYDATTHFETTCNDIKDIYKRMAGTAFDFENMKRKQNDVFGEAEQ

— PMC9574512
